In PMC5011643:
Numbering of substitutions follows the chain as printed. Names may count otherwise. No constants are given. Whether binding was seen depends on the method and setting. In cells and extracts the contact can be indirect. Some entries that bind do so weakly or less than the wild type. Blank lines part the entries; values can stand above or below the binder they belong to.

Biological target: phosphorylated Smad2 (human (endogenous in IMR32 and BE(2)-C)), Q15796
Assay: co-IP; IMR32 and BE(2)-C cells transfected with Smad4, D351H or R361H; western blot for p-Smad1 and p-Smad2
Conditions: remark: other sources report otherwise

binding: binds
B1: Smad4, transfected, Q13485 1-552 (protein)
chain: MDNMSITNTPTSNDACLSIVHSLMCHRQGGESETFAKRAIESLVKKLKEKKDELDSLITAITTNGAHPSKCVTIQRTLDGRLQVAGRKGFPHVIYARLWRWPDLHKNELKHVKYCQYAFDLKCDSVCVNPYHYERVVSPGIDLSGLTLQSNAPSSMMVKDEYVHDFEGQPSLSTEGHSIQTIQHPPSNRASTETYSTPALLAPSESNATSTANFPNIPVASTSQPASILGGSHSEGLLQIASGPQPGQQQNGFTGQPATYHHNSTTTWTGSRTAPYTPNLPHHQNGHLQHHPPMPPHPGHYWPVHNELAFQPPISNHPAPEYWCSIAYFEMDVQVGETFKVPSSCPIVTVDGYVDPSGGDRFCLGQLSNVHRTEAIERARLHIGKGVQLECKGEGDVWVRCLSDHAVFVQSYYLDREAGRAPGDAVHKIYPSAYIKVFDLRQCHRQMQQQAATAQAAAAAQAAAVAGNIPGPGSVGGIAPAISLSAAAGIGVDDLRRLCILRMSFVKGWGPDYPRQSIKETPCWIEIHLHRALQLLDEVLHTMPIADPQPLD
modifications: here or on the partner: phosphorylated (sites not given)

binding: no binding
B2: Smad4 R361H, Q13485 1-552 (protein)
chain: B1 chain with R361H
modifications: here or on the partner: phosphorylated (sites not given)

binding: no binding
B3: Smad4 D351H, Q13485 1-552 (protein)
chain: B1 chain with D351H
modifications: here or on the partner: phosphorylated (sites not given)
